Some of the results follow.

In this experiment the target is T1, MBP-FoxP1dN (Mus musculus, UniProt P58462 326-579).
T1 sequence: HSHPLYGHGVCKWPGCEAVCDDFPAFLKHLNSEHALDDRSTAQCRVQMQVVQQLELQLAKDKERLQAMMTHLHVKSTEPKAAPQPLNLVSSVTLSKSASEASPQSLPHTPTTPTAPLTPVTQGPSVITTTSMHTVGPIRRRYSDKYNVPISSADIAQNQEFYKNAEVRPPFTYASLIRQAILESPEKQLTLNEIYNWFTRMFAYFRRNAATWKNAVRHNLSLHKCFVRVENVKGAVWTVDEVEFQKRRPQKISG
Kind of experiment: PD-seq (MBP pull-down with sequencing); 20 mM Tris-HCl pH 7.5, 100 mM NaCl, 1.5 mM MgCl2, 0.4 uM protein, 0.1 uM dsDNA library, 30 min, room temperature, amylose pull-down; high values mean tight binding. The conditions noted are these: protein: recombinant; tags: His6-MBP; chain copies: 2; dsDNA, one strand shown. In a few lines: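 E. coli-expressed mouse FoxP3 or FoxP1 fragment, N-terminus removed and tagged with His6-MBP, was used at 0.4 µM against 0.1 µM of a Klenow-filled degenerate double-stranded DNA library. After 30 min at room temperature in Tris pH 7.5 buffer with NaCl and MgCl2, complexes were pulled down on amylose resin and washed three times. Binding is pull-down over input reads-per-million enrichment from pooled replicates of the proteinase K-released, PCR-barcoded, Illumina-sequenced DNA.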
For the sequence “GATGATTGTTCTCCCAGCTGATGAATTACCCTGTTCGAGTAAACAAATTTTCCTAATCTTTCTGTTCAAGCGCCATCTAC”, the binding signal is 0.947 RPM ratio (pull-down/input).
On to “GATGATTGTTCTCCCAGCTGATGAATTATTTGCCTCGAGTAAACAAATTTTCCTAATCTTTCTGTTCAAGCGCCATCTAC”, for which the binding signal is 1.52 RPM ratio (pull-down/input).
Then “GATGATTGTTCTCCCAGCTGATGAATTCTATAACTCGAGTAAACAAATTTTCCTAATCTTTCTGTTCAAGCGCCATCTAC”, with 0.885 RPM ratio (pull-down/input); and “GATGATTGTTCTCCCAGCTGATGAATTGTTCTCTTCGAGTAAACAAATTTTCCTAATCTTTCTGTTCAAGCGCCATCTAC”, with 1.26 RPM ratio (pull-down/input); and “GATGATTGTTCTCCCAGCTGATGAATTGGGTCCCTCGAGTAAACAAATTTTCCTAATCTTTCTGTTCAAGCGCCATCTAC”, with 0.768 RPM ratio (pull-down/input).
In the case of “GATGATTGTTCTCCCAGCTGATGAATTTATACACTCGAGTAAACAAATTTTCCTAATCTTTCTGTTCAAGCGCCATCTAC” it was 1.16 RPM ratio (pull-down/input).
Then “GATGATTGTTCTCCCAGCTGATGAATTGGACTTCTCGAGTAAACAAATTTTCCTAATCTTTCTGTTCAAGCGCCATCTAC”, with 0.731 RPM ratio (pull-down/input); and “GATGATTGTTCTCCCAGCTGATGAATTCTACGCATCGAGTAAACAAATTTTCCTAATCTTTCTGTTCAAGCGCCATCTAC”, with 1.07 RPM ratio (pull-down/input).
Take “GATGATTGTTCTCCCAGCTGATGAATTGAACAGGTCGAGTAAACAAATTTTCCTAATCTTTCTGTTCAAGCGCCATCTAC”: the binding signal is 0.784 RPM ratio (pull-down/input).
In the case of “GATGATTGTTCTCCCAGCTGATGAATTTTACGCATCGAGTAAACAAATTTTCCTAATCTTTCTGTTCAAGCGCCATCTAC” it was 1.07 RPM ratio (pull-down/input).
Then “GATGATTGTTCTCCCAGCTGATGAATTTGTAAGATCGAGTAAACAAATTTTCCTAATCTTTCTGTTCAAGCGCCATCTAC”, with 1.09 RPM ratio (pull-down/input); and “GATGATTGTTCTCCCAGCTGATGAATTAATTCAGTCGAGTAAACAAATTTTCCTAATCTTTCTGTTCAAGCGCCATCTAC”, with 0.936 RPM ratio (pull-down/input); and “GATGATTGTTCTCCCAGCTGATGAATTACGGACCTCGAGTAAACAAATTTTCCTAATCTTTCTGTTCAAGCGCCATCTAC”, with 0.838 RPM ratio (pull-down/input).
Take “GATGATTGTTCTCCCAGCTGATGAATTCTAGGCCTCGAGTAAACAAATTTTCCTAATCTTTCTGTTCAAGCGCCATCTAC”: the binding signal was 0.874 RPM ratio (pull-down/input).
In the case of “GATGATTGTTCTCCCAGCTGATGAATTTTGCAACTCGAGTAAACAAATTTTCCTAATCTTTCTGTTCAAGCGCCATCTAC” it was 1.27 RPM ratio (pull-down/input).
With “GATGATTGTTCTCCCAGCTGATGAATTTGGATTCTCGAGTAAACAAATTTTCCTAATCTTTCTGTTCAAGCGCCATCTAC”, the binding signal is 0.91 RPM ratio (pull-down/input).
Then “GATGATTGTTCTCCCAGCTGATGAATTACCCAACTCGAGTAAACAAATTTTCCTAATCTTTCTGTTCAAGCGCCATCTAC”, with 0.944 RPM ratio (pull-down/input).
In the case of “GATGATTGTTCTCCCAGCTGATGAATTAGAGAATTCGAGTAAACAAATTTTCCTAATCTTTCTGTTCAAGCGCCATCTAC” it was 0.899 RPM ratio (pull-down/input); in that of “GATGATTGTTCTCCCAGCTGATGAATTTTAACCGTCGAGTAAACAAATTTTCCTAATCTTTCTGTTCAAGCGCCATCTAC”, 0.848 RPM ratio (pull-down/input).
As to “GATGATTGTTCTCCCAGCTGATGAATTCGCTATTTCGAGTAAACAAATTTTCCTAATCTTTCTGTTCAAGCGCCATCTAC”, the binding signal was 0.918 RPM ratio (pull-down/input).
Then “GATGATTGTTCTCCCAGCTGATGAATTGCGAATCTCGAGTAAACAAATTTTCCTAATCTTTCTGTTCAAGCGCCATCTAC”, with 1.03 RPM ratio (pull-down/input); and “GATGATTGTTCTCCCAGCTGATGAATTCCGGGTTTCGAGTAAACAAATTTTCCTAATCTTTCTGTTCAAGCGCCATCTAC”, with 0.86 RPM ratio (pull-down/input).
Then “GATGATTGTTCTCCCAGCTGATGAATTAGTAAAATCGAGTAAACAAATTTTCCTAATCTTTCTGTTCAAGCGCCATCTAC”, with 1.05 RPM ratio (pull-down/input); and “GATGATTGTTCTCCCAGCTGATGAATTGTGTGTATCGAGTAAACAAATTTTCCTAATCTTTCTGTTCAAGCGCCATCTAC”, with 1.92 RPM ratio (pull-down/input); and “GATGATTGTTCTCCCAGCTGATGAATTCCGAAGCTCGAGTAAACAAATTTTCCTAATCTTTCTGTTCAAGCGCCATCTAC”, with 0.729 RPM ratio (pull-down/input).
In the case of “GATGATTGTTCTCCCAGCTGATGAATTATTACGTTCGAGTAAACAAATTTTCCTAATCTTTCTGTTCAAGCGCCATCTAC” it was 1.21 RPM ratio (pull-down/input); in that of “GATGATTGTTCTCCCAGCTGATGAATTGGCGGCGTCGAGTAAACAAATTTTCCTAATCTTTCTGTTCAAGCGCCATCTAC”, 0.896 RPM ratio (pull-down/input).
As for “GATGATTGTTCTCCCAGCTGATGAATTCGACACCTCGAGTAAACAAATTTTCCTAATCTTTCTGTTCAAGCGCCATCTAC”, the binding signal was 0.804 RPM ratio (pull-down/input).
For the sequence “GATGATTGTTCTCCCAGCTGATGAATTCTCTTACTCGAGTAAACAAATTTTCCTAATCTTTCTGTTCAAGCGCCATCTAC”, the binding signal is 0.854 RPM ratio (pull-down/input).
In the case of “GATGATTGTTCTCCCAGCTGATGAATTCAAGGTGTCGAGTAAACAAATTTTCCTAATCTTTCTGTTCAAGCGCCATCTAC” it was 0.904 RPM ratio (pull-down/input); in that of “GATGATTGTTCTCCCAGCTGATGAATTGCCAAGATCGAGTAAACAAATTTTCCTAATCTTTCTGTTCAAGCGCCATCTAC”, 1.02 RPM ratio (pull-down/input).
With “GATGATTGTTCTCCCAGCTGATGAATTCAGATTTTCGAGTAAACAAATTTTCCTAATCTTTCTGTTCAAGCGCCATCTAC”, the binding signal is 0.908 RPM ratio (pull-down/input).

Source of the values: PMC12820563, “FoxP3 forms a head-to-head dimer in vivo and stabilizes its multimerization on adjacent microsatellites”.
